In the RNAGym collection of RNA variant scans (doi:10.7554/elife.90254) one finds self-cleavage data, which are given here for 56 variants.

B1: LINE1-mini (parent)
chain: GGCAGAGCUCAACACAGCGUGGCAAAGUGGCUGUGGCUAGACUGCC

Read counts are not given, so values of variants with three or more changes are uncertain.

In the series the parent is B1. Description: self-cleavage, relative activity (ratio to wild type); higher = more cleavage; in vitro, sequencing; the parent is a self-cleaving ribozyme.
Regarding GGCAGAGCUCUACACAGCGUGGCAAAGUGGCUUUGGCUAGACGGCU [A11U G33U U43G C46U], the self-cleavage was found to be 0. As for GGCAGAGCUCACCACUUCGUGGCAAAGUGGCUGUGGCUAGACUGCC [A12C A16U G17U], the self-cleavage stood at 0.02. Take GGCAGAGCUCACGACAGCGUGGCAAAGUGGCUGUGUCUAGACAGCC [A12C C13G G36U U43A]: the self-cleavage came to 0.01. In the case of GGCAGAGCUCUACACAUCGUGGCAAAGUGGCUGUGGCUGGACUGGC [A11U G17U A39G C45G] it was 0.01; in that of GGCAGAGCUCUACACAGCGUGGCAAAAUGGCUGUAGCUAGACUGCC [A11U G27A G35A], 0.02; in that of GGCAGAGCUCUACACAGCGUGGCAAAGUGGCUUUACCUAGACUGGC [A11U G33U G35A G36C C45G], 0.01.

Take GGCAGAGCUCUACACAUCGUGGCAAAGUGGUUGUGGCUAGACUGCA [A11U G17U C31U C46A]: the self-cleavage amounted to 0.01. For GGCAGAGCUCACCAAAGCGUGGCAAAGUGGCUGAGGCUAGACUGCA [A12C C15A U34A C46A] the value was 0.03. For GGCAGAGCUCUACACAGCGUGGCAAAGUGGCUUUGGCUAUACUGCC [A11U G33U G40U], the self-cleavage stood at 0.04. Take GGCAGAGCUCACCACAGCGUGGGAACGUGGCUGUGGCUAGACUGCC [A12C C23G A26C]: the self-cleavage stood at 0.01. In the case of GGCAGAGCUCUACACAGCUUGGCAAGGUGGCUGUGGCUAGACUGCC [A11U G19U A26G] it was 0.17. In the case of GGCAGAGCUCUACACAGCGGUGCAAAGUGGCUGUGGUUAGACUGCC [A11U U20G G21U C37U] it was 0; in that of GGCAGAGCUCUACACAUCUUGGCAAAGUGGCUGCGGCUAGACUGAC [A11U G17U G19U U34C C45A], 0.03. For GGCAGAGCUCACCACAGCGUGGCAACGUGGCUGUGGCUAGACUCCC [A12C A26C G44C], the self-cleavage worked out at 0.02.

Consider GGCAGAGCUCUACACAGCGUCGCAAAGUGGCUUUGGCUAGACUGCC [A11U G21C G33U], for which the self-cleavage was 0.05. In the case of GGCAGAGCUCACCACAGGGUGGCAAAGUGGCUGUAGCUAGACGACC [A12C C18G G35A U43G G44A] it was 0; in that of GGCAGAGCUCACCACAGCGUGGCAAAGUGGGUGUGGCUAGACUCUC [A12C C31G G44C C45U], 0; in that of GGCAGAGCUCUACACAGCGUGGCAAAGUGGCUGUGGAAAGACCGCC [A11U C37A U38A U43C], 0.04. In the case of GGCAGAGCUCACUACAGCGUGGCAAAGUGGCUGUGGCUAGCCUGCC [A12C C13U A41C] it was 0; in that of GGCAGAGCUCUACACAACGUGGCAAAGUGGCUGUGGUUAGACUGCC [A11U G17A C37U], 0.04. As to GGCAGAGCUCUACACAUCGUGGCAAAGUGGCUUUGGCAAGACUGCC [A11U G17U G33U U38A], the self-cleavage worked out at 0.02. In the case of GGCAGAGCUCUACACAGCGUGUCUAAGUGGCUGUGGCUAGACUGCC [A11U G22U A24U] it was 0.01; in that of GGCAGAGCUCUACACAGCGUGGCAAAGUUGCUGUGGCUAAACUGAC [A11U G29U G40A C45A], 0.02; in that of GGCAGAGCUCACCAAAGCGUCGCAAUGUGGUUGUGGCUCGACGGCA [A12C C15A G21C A26U C31U A39C U43G C46A], 0.01. As for GGCAGAGCUCUACACAGCAUGGCAAAGUGGCUGUCGCUAUAGUGCC [A11U G19A G35C G40U C42G], the self-cleavage turned out to be 0.01. With GGCAGAGCUCUACACAGCGUGGCAAAGUGGCCGUGGCUAGCCUGCC [A11U U32C A41C], the self-cleavage is 0.03. For GGCAGAGCUCUACACAUCGUGGCAGAGUGGCUGUGGCAAGACUGCC [A11U G17U A25G U38A] the value was 0.01. As to GGCAGAGCUCACCCCAGCGUUGCAAAGUGGCCGUGGCUAGACUGCC [A12C A14C G21U U32C], the self-cleavage was 0.04. GGCAGAGCUCUACACAGCGUGGCAAAGAAGCUGCGGCUAGAUUGCC [A11U U28A G29A U34C C42U]: the self-cleavage turned out to be 0.01.

As to GGCAGAGCUCACCCCACCGUGGAAAAGUGGCUGCGGUUAAACUUCC [A12C A14C G17C C23A U34C C37U G40A G44U], the self-cleavage was determined as 0. In the case of GGCAGAGCUCACGUCAGCGUGUCAAAGUGGCUGUGGCUAGACUGCC [A12C C13G A14U G22U] it was 0.03. In the case of GGCAGAGCUCUACACAGCGUGGCAAAGUGGCUGUUGCAAGACUGCC [A11U G35U U38A], the self-cleavage was found to be 0.04. For GGCAGAGCUCACCAAAGCGUGGCAAAGAGGCUGUGGCUAGACUUCC [A12C C15A U28A G44U] the value was 0.01; for GGCAGAGCUCACUACAGCGUGGCUAAGUGGCUGUGGCUAGACUACC [A12C C13U A24U G44A], 0; for GGCAGAGCUCACCAUAGCCUGGCAAAGUGGCUAUGGCUAGACUUCC [A12C C15U G19C G33A G44U], 0.01. In the case of GGCAGAGCUCACCAAAGCCUCGCAAAGUGGCUGUGGCUAGACUGCC [A12C C15A G19C G21C], the self-cleavage stood at 0.01.

Consider GGCAGAGCUCACCCCAGCGUGGCAAAGUGGCUGUCGCUAGCCUGCC [A12C A14C G35C A41C], for which the self-cleavage was 0.02. In the case of GGCAGAGCUCUACACAGCGUGACAAAAUGACUGUGGCUAGACUGCC [A11U G22A G27A G30A] it was 0.04; in that of GGCAGAGCUCUACACAGCGUUUCACUGUGGCUGUGUCUAGACUGCC [A11U G21U G22U A25C A26U G36U], 0. For GGCAGAGCUCACCACAGCGUGGCUUAGUCGGUGUGGCUAGACUGCC [A12C A24U A25U G29C C31G] the value was 0.01; for GGCAGAGCUCUACACAACGUGGCAAAGUGGCUGCGGCUAGACUGCC [A11U G17A U34C], 0. For GGCAGAGCUCUACACAGCGUGGCAAAGUGGCUGCGGCUAGAGUGCC [A11U U34C C42G], the self-cleavage came to 0.02. In the case of GGCAGAGCUCUACACAGCGUGGCAAAGUGGCUGUGGCCAGUCUGCC [A11U U38C A41U] it was 0.01; in that of GGCAGAGCUCACCGCAGCGUGGCAAAGUGCCUGUGGCUAGACUGCU [A12C A14G G30C C46U], 0.02; in that of GGCAGAGCUCUACACAGCGUUGUAAAGUGGCCGUGGCUAGGCUGCC [A11U G21U C23U U32C A41G], 0.02. In the case of GGCAGAGCUCUACACAGCGUGGCAAACUGGCUGUGGCUAGUCUGCC [A11U G27C A41U], the self-cleavage turned out to be 0.15. With GGCAGAGCUCACCACAGAGUGGCGAAGUGGCUGUGGCUAGAUUGCC [A12C C18A A24G C42U], the self-cleavage turned out to be 0. For GGCAGAGCUCUACACAUCGUGGCAAAGUGGCUGUGGCUAGACUGUC [A11U G17U C45U] the value was 0.04. For GGCAGAGCUCUACACAGCGUGGCAAAGUGGCUAUGGCUAGAUUGCC [A11U G33A C42U] the value was 0.01. In the case of GGCAGAGCUCUACACAGCGUCGCAAAGUGGCUGAGGCUAGACUGCA [A11U G21C U34A C46A] it was 0.05. For GGCAGAGCUCACCCCAGCGUAGCAAAGGCGCUGUGGCUAGACUGCC [A12C A14C G21A U28G G29C], the self-cleavage stood at 0. For GGCAGAGCUCUACACAGCCUAGCAAAGUGGCUGUGGCGAGACUGCC [A11U G19C G21A U38G] the value was 0.02; for GGCAGAGCUCUACACAGCGUGGCAAAGUGGCGGUAGCUAGACUGCC [A11U U32G G35A], 0. Take GGCAGAGCUCACCACAGCGUGGCGAAGUUGCUGUGGCUAGACUGCC [A12C A24G G29U]: the self-cleavage turned out to be 0.01.

For the variant GGCAGAGCUCUACACAGCGUGACUAAGUGGCUGUGGCUAGACUACC [A11U G22A A24U G44A], the self-cleavage came to 0.08.

Turning to GGCAGAGCUCUACACAGCGUGGCAAAGUGGCUGACGCUAGACUGCC [A11U U34A G35C], the self-cleavage worked out at 0.03.
